Some of the results follow.
test system: PfSIP2 AP2 domain 1 (GST-tagged); test: gcPBM binding intensity (ln(normalized median fluorescence intensity)); higher = stronger DNA binding
Outline: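 Binding of GST-tagged P. falciparum DNA-binding domains, expressed in E. coli and used at about 25 μg on average, was carried out for 1 h in 1× PBS containing 1% milk, 0.2 mg/ml BSA, 0.5% salmon testes DNA and 0.03% Triton X-100. The target was an Agilent 4 × 180k array of primer-extended double-stranded 36-bp intergenic genomic probes plus negative controls, read with Alexa488 anti-GST antibody at 488 nm. Binding intensity is the highest Masliner-normalised natural-log median intensity across replicate spots of either probe orientation.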

Sequence | gcPBM binding intensity (ln)
TTCATAAAATGTGTCTGTACGTAAATGTATTACACT [XGTACX_site3179] | 7.02
AACATTATATATTGCAGTACTCCCATATGTTGATAA [XGTACX_site3119] | 7.12
ATATATATATATATATGTACACATAAAAAGAAAGAA [XGTACX_site1603] | 9.7
TTTAGTTGTGAGAATTGTACATATTTTCCTTTTACC [XGTACX_site7291] | 6.98
TATATACCTATATACACACACATATATTATAGATAT [CACACA_site6266] | 7.2
TATATATATGAACAATGTACGTATAATATTTTTATT [XGTACX_site7561] | 7.08
GATCTATACTATAATACACACATTTGATGAATGTAA [CACACA_site6163] | 7.06
GCAATTTTTTTTAAGAGTACTAATATATTATAGTGG [XGTACX_site7316] | 7.11
TTTTTTTAATAGTGTGCACACAATATACAGAAAAAA [CACACA_site8399] | 9.3
ATATATATATATATATGTACATATGTTTGTTTCCGC [XGTACX_site5167] | 9.7
CATAATTTAAAAAAGGTGCAAAATGGATAATATATA [GTGCAC_site9657] | 11
CATACATACATACATACATGCATACATACATACATA [TGCATGCA_site218] | 7.95
TTTTTTTTCATTTTATGTACACATAATTTAATATAT [XGTACX_site5768] | 7.54
AAAAAGTGACTCCTTACACACTTTACATAATTTAGG [CACACA_site8176] | 6.78
ATATACATATATATATGTACTTATTTATTTATTTAT [XGTACX_site2532] | 7.16
ATATATATATATAATTGTACATATAATATAATATTA [XGTACX_site5216] | 9.25
ATATATATTATATATAGTACTTTTTTGCGCAAATAT [XGTACX_site6849] | 7.4
AATATGTTATAAATATGTTATAAATAATAAATAAAT [GTGCAC_negctrl_site135] | 6.95
AACACATGCTTGGTCACACACGTATGCATATTTAAA [CACACA_site5206] | 7.13
ACAATGTCATTTGCTAGTACGCATATTGGTTGTAAA [XGTACX_site8924] | 7.07
ATTTTTTTTTTTTTATGTACATATAGGTGCAAATCA [XGTACX_site6748] | 11.4
TAAAAAAAAAAAAAAAGTACACACATACATATAAAT [XGTACX_site3752] | 7.37
TATTTTTTTTTTTTTTTTTTTTTAAAACATATCAAT [CACACA_negctrl_site925] | 6.69

Sequence | gcPBM binding intensity (ln)
TAATTATATATATACACACACATACAGACAAATAAA [CACACA_site3412] | 7.28
GAAATTTGTTATTGCACACAAATTTTTCTTTTTTTA [CACACA_site2339] | 6.97
ATATTTATATATATCATACACACTAATATGTATATT [CACACA_site3409] | 6.9
TACCATATTTCTTCAAGTACGCATTATGTTAAAAAG [XGTACX_site345] | 7.24
TACATATATTTTTATACATGCATAACTTAGGACTTT [TGCATGCA_site113] | 7.07
TCCTTTTTGAAATGTTGTACTTTTTTTATCTTTCAT [XGTACX_site953] | 7.12
ATTTTTATTCAGTTCACACACGCTTTAATATTATAT [CACACA_site3465] | 7.1
AAAATATTTTTATAATGTACATATAGTTGTATTTGT [XGTACX_site8724] | 7.43
ATATATATTTAACAATGTACTTATTCAGAGAATAAT [XGTACX_site574] | 7.04
AAGTTGAAATAATGTGCACACATTTTTTTTTTTTTT [CACACA_site3368] | 8.43
CCCTTAATATAAAGCACACATATATATAATATATAT [CACACA_site4439] | 7.21
ATTAATAAAAAATTTTAAAAAATAAATAAAATAAAA [TGCATGCA_negctrl_site113] | 6.74
ATAATAAATAAAATAACACACATATATAAATATATA [CACACA_site170] | 6.98
ATTATGTGTCCACATGTAAGCTATCTTACTTATATA [CACACA_negctrl_site1227] | 6.98
CATATTTGTGGACACACACACATATTTATATATATA [CACACA_site5887] | 7.93
ATAGTTACACAATGGTGTACAAGTCAATATATTTCT [XGTACX_site4614] | 6.95
TACAAAAAAATAAAAAAAATTAAATAAATAAATATA [CACACA_negctrl_site45] | 6.76
TATCCTTATATTTGCACACACACACTAGAAAATGAA [CACACA_site4714] | 7.69
AAAAAAAAAAAAAAAAAAAACGAAAAACATCAAAGA [TGCATGCA_negctrl_site78] | 8.1
ACTAAAAAATATATATGTACATAATAATATATTATT [XGTACX_site1260] | 7.36
ATTTATACTTATGTATGTACATATATACATATGTAT [XGTACX_site3979] | 7.07
ATAATAAAATAACTAGTGCATATTCAAAGGATTCAG | 8.26
TCCATATATGCCTTATGTACATATACCAAATTAACC [XGTACX_site6513] | 7.28

Sequence | gcPBM binding intensity (ln)
TTTGGCTAGTTAGGCCGTACATGTAAATAATATATA [XGTACX_site1138] | 7.13
AATGAATGTAAGAAAATACACACTAGTATAGTAACA [CACACA_site1955] | 6.87
TTGGAAAAAGTGAAATGTACATATATATTTATTATT [XGTACX_site6946] | 6.99
AAAGGATTTATACTAGTGCAAAAATATAAAAATATA | 8.04
AATAATAAAGTGAACACACACATATAACATCTATAT [CACACA_site7868] | 6.97
GAAGTTTTTTAAAGATGTACTTTTTAAAAATAATCT [XGTACX_site263] | 7.2
AATATAAATACTCCTACACACATATATATATATATA [CACACA_site3010] | 9.39
GACACAAAAAAATAATAATAATAATAATAATAAATA [XGTACX_negctrl_site145] | 6.82
ACAAATACAAAAAAAGGTACACACATAATATATTTA [XGTACX_site5515] | 7.04
TTTGTTTTTAATTTCGCACACACCTTGTGGAAAAAA [CACACA_site577] | 7.37
AAATATTTTATACTTGCACACAAAATATATTAAAAT [CACACA_site8606] | 7.33
TTCTTATAAATATACACACACAAAATATCTACAATG [CACACA_site6487] | 7.09
TGTGTAAGATCTTGGATGATGATAAGAATCTACTAG [CACACA_negctrl_site1167] | 6.88
CCTTAAAATAAGATATGTACGCAAAGGAAAACAAAG [XGTACX_site6057] | 7.62
TTATAAGATTTATGTACACACATATACTCACCTCTA [CACACA_site729] | 7.04
TGCTATAATTTATATACACACAAATATATACGCATA [CACACA_site4096] | 7.09
TATGTATGTGCTTGTGCGCACCGATAATATAGCCAA | 9.96
TCTCATAGTAGACACACACACACACGCACATATATA [CACACA_site6916] | 7.2
ACATAAGACACAAATACACACAAAAATATGTAACAA [CACACA_site7836] | 7.07
TTTTATGAAAAGTATTGTACGTATAATTTATATGTA [XGTACX_site1639] | 7.04
TATATAAATAGACACACACACACCTTATAATTACTA [CACACA_site7828] | 7.02
ATAATAATTAACCTATGTACATAGGAAAGTCATAAA [XGTACX_site4387] | 7.06
AAAAAAAAAAAACACACACACACATACACATACATA [CACACA_site2858] | 7.25

Sequence | gcPBM binding intensity (ln)
GAAGAAAAATAAAAAGTGCAAAAAAAGTAAAAATTT [GTGCAC_site9897] | 8.02
TACTTGTTATTAACATGTACAAAAAAAAAAAAAATT [XGTACX_site1338] | 6.89
AAACAATATTCTCAAGTGCAAAAAGAAAAAAGAAAT | 7.78
TTTATTTTTATTTAAAGTACATATCCATTTATTCCT [XGTACX_site1914] | 7.07
AATGTACCCACACCCACACACAAACAAATATATATA [CACACA_site2751] | 7.47
ATAGGATGCATATGAGTGCATTCTGTGTTGTTATAA | 10.1
AGATTAAAATATATACGTACATATTATTAATTAATA [XGTACX_site3487] | 7.16
TAATGTATTATATTTTGTTTTCTTCCACCAAAAAAA [XGTACX_negctrl_site64] | 7
AAAAAAAAAATTAAATGTACACACACCTTAAACAAT [XGTACX_site3848] | 6.96
ATTTTCTTATATATATTTTGTATATATTTTGTACAT [CACACA_negctrl_site1496] | 7.15
ACCCATATAATATATACACACATATATATATATATA [CACACA_site4731] | 8.96
TAAAAATTGAAGCACACACACAAAAGAAATACAATA [CACACA_site1113] | 6.98
TTTTTTTTTACTTGTTGTACTTTTTCAAGGTATTGT [XGTACX_site7778] | 7.07
ATATAAAAAAATTGCACACATAAATAAATACAGATA [CACACA_site4806] | 7.28
CTACCTTTAATATATACACACACATAAAAAAAATAT [CACACA_site8548] | 7.44
ATATATATATATAATAAACACACAAATAGATATAAC [CACACA_site9234] | 9.02
TATATATATATATATACATGCATACATATACATACA [TGCATGCA_site897] | 9.01
AGATAAGATATATACACACACATAAATACGTACAAA [CACACA_site6639] | 7.26
ATATTTACAAGTAATAGTACAGTTAATTATATAAAA [XGTACX_site4856] | 6.95
ATTATATAGCTAAAAAAAATAAATTAAAAATATTAA [TGCATGCA_negctrl_site505] | 6.65

From the supplement of paper PMC11417369
